# Experimental data: paper PMC10155811 (2022)
# B1: Plk1 polo box domain ([…]) (domain or fragment)
# chain: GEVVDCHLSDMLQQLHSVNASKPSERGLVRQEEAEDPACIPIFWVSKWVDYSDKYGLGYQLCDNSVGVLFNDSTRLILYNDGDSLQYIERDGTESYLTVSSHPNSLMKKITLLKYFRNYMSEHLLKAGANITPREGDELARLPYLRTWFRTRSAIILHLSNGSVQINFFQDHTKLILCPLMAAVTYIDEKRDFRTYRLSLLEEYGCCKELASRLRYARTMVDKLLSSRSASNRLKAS
# Tests used:
# [1] = target: Bub1 peptide with the Plk1 binding motif (Plk1 docking site T609) (human, UniProt O43683); experiment: ITC; phosphorylated T609 (QLASpTPFHKW)
# [2] = target: BubR1 peptide with the Plk1 binding motif (T620) (human, UniProt O60566); experiment: ITC; phosphorylated T620 (RFVSpTPFHEW)
binder,measurement,setting,value
B1,Kd,[1],710 nM
same,Kd,[2],1110 nM
